The numbers were not newly measured in article PMC11006913, which cites them from elsewhere.

Residue numbers refer to the chain shown, from its start. The list shows a part of the results.

Holding throughout (settings): PBM; conditions not shown; double strand, one strand shown; scale: upbm affinity estimate (log intensity, higher = more binding, comparable within an allelic series)
For data set [1], the target named is ARX (Homo sapiens) (UniProt Q96QS3).
The target in data set [2] is ARX L343Q (Homo sapiens) (UniProt Q96QS3).
The target of data set [3] is ARX P353L (Homo sapiens) (UniProt Q96QS3).
For data set [4], the target named is ARX P353R (Homo sapiens) (UniProt Q96QS3).
Data set [5] deals with ARX R332H (Homo sapiens) (UniProt Q96QS3).
Data set [6] has as its target ARX T333N (Homo sapiens) (UniProt Q96QS3).
Data set [7] has as its target T1, HESX1 E149K (Homo sapiens) (UniProt Q9UBX0).
T1 sequence: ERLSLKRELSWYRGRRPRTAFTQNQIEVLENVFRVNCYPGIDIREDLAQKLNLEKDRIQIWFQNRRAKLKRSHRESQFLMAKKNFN

In data set [8] the target is T2, HESX1 N125S (Homo sapiens) (UniProt Q9UBX0).
T2 sequence: T1 sequence with N31S, K55E

Data set [9] deals with T3, HESX1 R160C (Homo sapiens) (UniProt Q9UBX0).
T3 sequence: T1 sequence with K55E, R66C

The target in data set [10] is ISX (Homo sapiens) (UniProt Q2M1V0).
For data set [11], the target named is ISX R83Q (Homo sapiens) (UniProt Q2M1V0).
In data set [12] the target is PROP1 R112Q (Homo sapiens) (UniProt O75360).
Data set [13] addresses PROP1 R99Q (Homo sapiens) (UniProt O75360).
Data set [14] deals with HOXD13 I297V (Homo sapiens) (UniProt P35453).
The target of data set [15] is HOXD13 N298S (Homo sapiens) (UniProt P35453).
In data set [16] the target is HOXD13 S316C (Homo sapiens) (UniProt P35453).
The target in data set [17] is HOXD13 I322L (Homo sapiens) (UniProt P35453).
For data set [18], the target named is HOXD13 Q325K (Homo sapiens) (UniProt P35453).
The target in data set [19] is HOXD13 Q325R (Homo sapiens) (UniProt P35453).
Data set [20] has as its target HOXD13 R306W (Homo sapiens) (UniProt P35453).

AGTAATTA [8-mer AGTAATTA]: the binding signal in data set [1] was 13.2; in data set [2], 11.1; in [3], 12.8; in data set [4], 10.9; in data set [5] it was 11.2; in [6] it was 12.3. Also, the binding signal was 11.8 in data set [7]; 13 in data set [8]; 10.4 in data set [9]; 15.4 in data set [10]; 14.5 in data set [11]; 12.9 in [12]. In data set [13], the binding signal was 12.4.
For the sequence CTTCGGCC [8-mer CTTCGGCC], the binding signal was 10.2 in data set [1]; 10.1 in data set [2]; 10.2 in [3]; 10.1 in data set [4]; 10.1 in [5]; 10.3 in data set [6]. Besides, the results for the binding signal in [7], in data set [8] and in data set [9] were 9.95, 7.69 and 10, respectively.
Consider AATTAATC [8-mer AATTAATC], for which the binding signal was 12.8 in data set [1]; 10.9 in [2]; 12.4 in data set [3]; 10.8 in data set [4]; 11.1 in [5]; 12.1 in [6]. Besides, the binding signal in data set [7] is 11.5; in data set [8], 11.5; in [9], 10.4; in data set [10] it was 14.9; in [11], 13.8; in data set [12] it was 12.8. Further, in data set [13], the binding signal is 12.1.
As for GACCGCCC [8-mer GACCGCCC], the binding signal is 10.1 in data set [1]; 10 in [2]; 10.1 in data set [3]; 9.95 in data set [4]; 10 in data set [5]; 10.2 in data set [6]. The binding signal is 9.87 in data set [7], 7.84 in [8] and 9.99 in [9].
Take ATAATTGC [8-mer ATAATTGC]: the binding signal in [1] was 12.6; in data set [2], 10.9; in data set [3] it was 12.1; in data set [4], 10.9; in [5] it was 11.1; in data set [6] it was 11.8. In addition, the binding signal was 11.6 in [7]; 12.1 in data set [8]; 10.4 in [9]; 14.9 in data set [10]; 13.2 in data set [11]; 12.7 in [12]. In [13], the binding signal is 12.2.
As to CGGGTTCC [8-mer CGGGTTCC], the binding signal in [1] is 10.1; in data set [2], 10.1; in data set [3], 10.1; in data set [4] it was 10.1; in data set [5], 10.1; in [6], 10.2.
Consider TAATTATA [8-mer TAATTATA], for which the binding signal was 12.9 in [1]; 11 in [2]; 12.4 in data set [3]; 10.9 in [4]; 11.1 in [5]; 12.1 in [6]. For the same sequence, the binding signal in data set [7] is 11.7; in data set [8], 12.9; in data set [9], 10.4; in data set [14], 12.3; in data set [15], 12.5; in data set [16], 12.1. The binding signal in data set [10] is 15.3; in data set [11], 14.1; in data set [12], 12.7; in data set [13], 12.2.
In the case of GTTAATTA [8-mer GTTAATTA], the binding signal in [1] was 13.3; in data set [2], 11; in data set [3], 12.9; in [4], 10.8; in data set [5], 11.2; in [6], 12.5. The binding signal in [7] is 12.1; in data set [8], 13.7; in data set [9] it was 10.4; in data set [14], 12.2; in [15] it was 12.5; in [16] it was 12.1. In addition, the binding signal in data set [10] is 15.6; in data set [11], 15.3; in data set [12], 12.9; in data set [13] it was 12.4.
For GCCAATTA [8-mer GCCAATTA], the binding signal in data set [1] is 13; in [2] it was 10.9; in data set [3] it was 12.8; in data set [4], 10.7; in data set [5], 11; in [6], 12.3. The binding signal in data set [7] was 12; in data set [8] it was 13.3; in data set [9] it was 10.3; in data set [14], 11.4; in data set [15], 11.6; in data set [16], 11.1. In addition, the binding signal in [10] was 15.4; in data set [11] it was 14.8; in [12], 12.9; in data set [13], 12.5.
On to CAATTACG [8-mer CAATTACG], for which the binding signal was 12.7 in [1]; 10.8 in data set [2]; 12.2 in [3]; 10.7 in data set [4]; 10.8 in [5]; 11.7 in data set [6]. Besides, the binding signal is 11.5 in [7]; 11.7 in data set [8]; 10.4 in [9]; 11.1 in data set [14]; 10.7 in [17]; 11.2 in data set [15]. Further, the binding signal in data set [16] was 10.8; in data set [10], 14.8; in [11], 13.4; in [13] it was 12.2.
With TAATTAAA [8-mer TAATTAAA], the binding signal in data set [1] is 13.1; in [2], 10.9; in [3] it was 12.6; in data set [4], 10.7; in data set [5], 11.1; in [6], 12.3. Further, the binding signal was 11.7 in data set [7]; 13.3 in [8]; 10.3 in data set [9]; 12.6 in [14]; 11.6 in data set [17]; 12.7 in [15]. For the same sequence, the binding signal in [18] was 11.3; in data set [19], 12.1; in data set [20], 11.8; in data set [16], 12.4; in data set [10], 15.3; in [11] it was 14.9. In addition, the values for the binding signal in data set [12] and in data set [13] were 12.8 and 12.2, respectively.
